In the supplement of paper PMC8728848:
The list shows a part of the results.

Columns and labels:
Test in all cases: glycan array binding signal (z-score within array); higher = stronger binding
Settings in all cases: glycan notation: IUPAC condensed, linker removed
[1] = target: Neu5Ac(a2-3)Gal(b1-3)GlcNAc(b1-2)Man
Summary of the method: (§1)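 From the Consortium for Functional Glycomics database, 3228 arrays were curated, keeping only those whose protein sequence was available. Binding is given as a within-array Z-score averaged across arrays sharing a protein sequence and across linkers. Negative Z-scores can be read as non-binding.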

[2] = target: Neu5Ac(a2-3)Gal(b1-3)GlcNAc(b1-2)Man(a1-3)[GlcNAc(b1-4)][Neu5Ac(a2-3)Gal(b1-3)GlcNAc(b1-2)Man(a1-6)]Man(b1-4)GlcNAc(b1-4)GlcNAc
Summary of the method: as §1

[3] = target: Neu5Ac(a2-3)Gal(b1-3)GlcNAc(b1-2)Man(a1-3)[Neu5Ac(a2-3)Gal(b1-3)GlcNAc(b1-2)Man(a1-6)]Man(b1-4)GlcNAc(b1-4)GlcNAc
Summary of the method: as §1

[4] = target: Neu5Ac(a2-3)Gal(b1-3)GlcNAc(b1-3)Gal(b1-3)GlcNAc
Summary of the method: as §1

[5] = target: Neu5Ac(a2-3)Gal(b1-3)GlcNAc(b1-3)Gal(b1-4)GlcNAc
Summary of the method: as §1

[6] = target: Neu5Ac(a2-3)Gal(b1-3)GlcNAc(b1-3)GalNAc
Summary of the method: as §1

[7] = target: Neu5Ac(a2-3)Gal(b1-3)GlcNAc(b1-4)Gal(b1-4)Glc
Summary of the method: as §1

[8] = target: Neu5Ac(a2-3)Gal(b1-3)GlcNAc(b1-6)GalNAc
Summary of the method: as §1

[9] = target: Neu5Ac(a2-3)Gal(b1-3)GlcNAc6S
Summary of the method: as §1

[10] = target: Neu5Ac(a2-3)Gal(b1-3)[Fuc(a1-4)]GlcNAc
Summary of the method: as §1

[11] = target: Neu5Ac(a2-3)Gal(b1-3)[Fuc(a1-4)]GlcNAc(b1-3)Gal(b1-3)[Fuc(a1-4)]GlcNAc
Summary of the method: as §1

[12] = target: Neu5Ac(a2-3)Gal(b1-3)[Fuc(a1-4)]GlcNAc(b1-3)Gal(b1-4)[Fuc(a1-3)]GlcNAc
Summary of the method: as §1

[13] = target: Neu5Ac(a2-3)Gal(b1-3)[GlcNAc(b1-6)]GalNAc
Summary of the method: as §1

[14] = target: Neu5Ac(a2-3)Gal(b1-3)[Neu5Ac(a2-6)]GalNAc
Summary of the method: as §1

[15] = target: Neu5Ac(a2-3)Gal(b1-3)[Neu5Ac(a2-6)]GlcNAc(b1-3)[Fuc(a1-3)[Gal(b1-4)]GlcNAc(b1-6)]Gal(b1-4)Glc
Summary of the method: as §1

[16] = target: Neu5Ac(a2-3)Gal(b1-3)]Neu5Ac(a2-3)Gal(b1-4)]GlcNAc
Summary of the method: as §1

[17] = target: Neu5Ac(a2-3)Gal(b1-4)Glc
Summary of the method: as §1

[18] = target: Neu5Ac(a2-3)Gal(b1-4)GlcNAc
Summary of the method: as §1

[19] = target: Neu5Ac(a2-3)Gal(b1-4)GlcNAc(b1-2)Man
Summary of the method: as §1

[20] = target: Neu5Ac(a2-3)Gal(b1-4)GlcNAc(b1-2)Man(a1-3)[GlcNAc(b1-4)][Neu5Ac(a2-3)Gal(b1-4)GlcNAc(b1-2)Man(a1-6)]Man(b1-4)GlcNAc(b1-4)GlcNAc
Summary of the method: as §1

[21] = target: Neu5Ac(a2-3)Gal(b1-4)GlcNAc(b1-2)Man(a1-3)[Neu5Ac(a2-3)Gal(b1-4)GlcNAc(b1-2)Man(a1-6)]Man(b1-4)GlcNAc(b1-4)GlcNAc
Summary of the method: as §1

[22] = target: Neu5Ac(a2-3)Gal(b1-4)GlcNAc(b1-2)Man(a1-3)[Neu5Ac(a2-3)Gal(b1-4)GlcNAc(b1-2)Man(a1-6)]Man(b1-4)GlcNAc(b1-4)[Fuc(a1-6)]GlcNAc
Summary of the method: as §1

[23] = target: Neu5Ac(a2-3)Gal(b1-4)GlcNAc(b1-2)Man(a1-3)[Neu5Ac(a2-6)Gal(b1-4)GlcNAc(b1-2)Man(a1-6)]Man(b1-4)GlcNAc(b1-4)GlcNAc
Summary of the method: as §1

[24] = target: Neu5Ac(a2-3)Gal(b1-4)GlcNAc(b1-2)[Neu5Ac(a2-3)Gal(b1-4)GlcNAc(b1-4)]Man(a1-3)[GlcNAc(b1-4)][Neu5Ac(a2-3)Gal(b1-4)GlcNAc(b1-2)[Neu5Ac(a2-3)Gal(b1-4)GlcNAc(b1-6)]Man(a1-6)]Man(b1-4)GlcNAc(b1-4)GlcNAc
Summary of the method: as §1

[25] = target: Neu5Ac(a2-3)Gal(b1-4)GlcNAc(b1-2)[Neu5Ac(a2-3)Gal(b1-4)GlcNAc(b1-4)]Man(a1-3)[GlcNAc(b1-4)][Neu5Ac(a2-3)Gal(b1-4)GlcNAc(b1-4)Man(a1-6)]Man(b1-4)GlcNAc(b1-4)GlcNAc
Summary of the method: as §1

[26] = target: Neu5Ac(a2-3)Gal(b1-4)GlcNAc(b1-2)[Neu5Ac(a2-3)Gal(b1-4)GlcNAc(b1-6)]Man(a1-6)[Neu5Ac(a2-3)Gal(b1-4)GlcNAc(b1-2)Man(a1-3)]Man(b1-4)GlcNAc(b1-4)GlcNAc
Summary of the method: as §1

[27] = target: Neu5Ac(a2-3)Gal(b1-4)GlcNAc(b1-2)[Neu5Ac(a2-3)Gal(b1-4)GlcNAc(b1-6)]Man(a1-6)[Neu5Ac(a2-3)Gal(b1-4)GlcNAc(b1-2)Man(a1-3)][GlcNAc(b1-4)]Man(b1-4)GlcNAc(b1-4)GlcNAc
Summary of the method: as §1

[28] = target: Neu5Ac(a2-3)Gal(b1-4)GlcNAc(b1-3)Gal
Summary of the method: as §1

[29] = target: Neu5Ac(a2-3)Gal(b1-4)GlcNAc(b1-3)Gal(b1-3)GlcNAc
Summary of the method: as §1

[30] = target: Neu5Ac(a2-3)Gal(b1-4)GlcNAc(b1-3)Gal(b1-4)GlcNAc
Summary of the method: as §1

[31] = target: Neu5Ac(a2-3)Gal(b1-4)GlcNAc(b1-3)Gal(b1-4)GlcNAc(b1-2)Man(a1-3)[Neu5Ac(a2-3)Gal(b1-4)GlcNAc(b1-3)Gal(b1-4)GlcNAc(b1-2)Man(a1-6)]Man(b1-4)GlcNAc(b1-4)GlcNAc
Summary of the method: as §1

[32] = target: Neu5Ac(a2-3)Gal(b1-4)GlcNAc(b1-3)Gal(b1-4)GlcNAc(b1-3)Gal(b1-4)GlcNAc
Summary of the method: as §1

[33] = target: Neu5Ac(a2-3)Gal(b1-4)GlcNAc(b1-3)Gal(b1-4)GlcNAc(b1-3)Gal(b1-4)GlcNAc(b1-2)Man(a1-3)[Neu5Ac(a2-3)Gal(b1-4)GlcNAc(b1-3)Gal(b1-4)GlcNAc(b1-3)Gal(b1-4)GlcNAc(b1-2)Man(a1-6)]GalNAc
Summary of the method: as §1

[34] = target: Neu5Ac(a2-3)Gal(b1-4)GlcNAc(b1-3)Gal(b1-4)GlcNAc(b1-3)GalNAc
Summary of the method: as §1

[35] = target: Neu5Ac(a2-3)Gal(b1-4)GlcNAc(b1-3)Gal(b1-4)GlcNAc(b1-3)[Neu5Ac(a2-3)Gal(b1-4)GlcNAc(b1-3)Gal(b1-4)GlcNAc(b1-6)]GalNAc
Summary of the method: as §1

[36] = target: Neu5Ac(a2-3)Gal(b1-4)GlcNAc(b1-3)Gal(b1-4)GlcNAc(b1-6)[Gal(b1-3)]GalNAc
Summary of the method: as §1

[37] = target: Neu5Ac(a2-3)Gal(b1-4)GlcNAc(b1-3)Gal(b1-4)[Fuc(a1-3)]GlcNAc
Summary of the method: as §1

[38] = target: Neu5Ac(a2-3)Gal(b1-4)GlcNAc(b1-3)GalNAc
Summary of the method: as §1

B1: Als3-N (Candida albicans) (protein)
chain: KTITGVFNSFNSLTWSNAATYNYKGPGTPTWNAVLGWSLDGTSASPGDTFTLNMPCVFKFTTSQTSVDLTAHGVKYATCQFQAGEEFMTFSTLTCTVSNTLTPSIKALGTVTLPLAFNVGGTGSSVDLEDSKCFTAGTNTVTFNDGGKKISINVDFERSNVDPKGYLTDSRVIPSLNKVSTLFVAPQCANGYTSGTMGFANTYGDVQIDCSNIHVGITKGLNDWNYPVSSESFSYTKTCSSNGIFITYKNVPAGYRPFVDAYISATDVNSYTLSYANEYTCAGGYWQRAPFTLRWTGYRNSDAGSNGIVIVATTRTVTDSTTAVTTLPFDPNRDKTKTIEILKPIPTTTITTSYVGVTTSYLTKTAPIGETATVIVDIPYHTTTTVTSKWTGTITSTTTHTNPTDSIDTVIVQVP
- glycan array binding signal (z-score) [1]: -0.29
- glycan array binding signal (z-score) [2]: -0.11
- glycan array binding signal (z-score) [3]: -0.215
- glycan array binding signal (z-score) [4]: -0.275
- glycan array binding signal (z-score) [5]: -0.127
- glycan array binding signal (z-score) [6]: -0.285
- glycan array binding signal (z-score) [7]: -0.308
- glycan array binding signal (z-score) [8]: 0.161
- glycan array binding signal (z-score) [9]: -0.221
- glycan array binding signal (z-score) [10]: -0.209
- glycan array binding signal (z-score) [11]: -0.104
- glycan array binding signal (z-score) [12]: 0.004
- glycan array binding signal (z-score) [13]: 0.011
- glycan array binding signal (z-score) [14]: 0.127
- glycan array binding signal (z-score) [15]: -0.237
- glycan array binding signal (z-score) [16]: -0.216
- glycan array binding signal (z-score) [17]: -0.155
- glycan array binding signal (z-score) [18]: -0.241
- glycan array binding signal (z-score) [19]: -0.01
- glycan array binding signal (z-score) [20]: -0.08
- glycan array binding signal (z-score) [21]: -0.137
- glycan array binding signal (z-score) [22]: 0.105
- glycan array binding signal (z-score) [23]: -0.321
- glycan array binding signal (z-score) [24]: -0.066
- glycan array binding signal (z-score) [25]: -0.085
- glycan array binding signal (z-score) [26]: 0.647
- glycan array binding signal (z-score) [27]: -0.237
- glycan array binding signal (z-score) [28]: -0.308
- glycan array binding signal (z-score) [29]: -0.226
- glycan array binding signal (z-score) [30]: -0.127
- glycan array binding signal (z-score) [31]: 0.395
- glycan array binding signal (z-score) [32]: -0.185
- glycan array binding signal (z-score) [33]: 4.72
- glycan array binding signal (z-score) [34]: 0.294
- glycan array binding signal (z-score) [35]: 0.051
- glycan array binding signal (z-score) [36]: 0.08
- glycan array binding signal (z-score) [37]: -0.281
- glycan array binding signal (z-score) [38]: -0.068
